Measurements published in the supplement of paper PMC11417369.
The other results are listed elsewhere or left out.

These sequences were tested on PfHDP1 homeodomain (GST-tagged) (assay: gcPBM binding intensity (ln(normalized median fluorescence intensity)); higher = stronger DNA binding).
How it was run: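 For binding intensity, the highest Masliner-normalised natural-log median intensity across replicate spots of either probe orientation was taken. Protein bound to the array was stained with Alexa488 anti-GST antibody and scanned at 488 nm. The protein, GST-tagged P. falciparum DNA-binding domains from E. coli at about 25 μg on average, had been applied for 1 h to an Agilent 4 × 180k array of primer-extended double-stranded 36-bp intergenic genomic probes and negative controls.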

| Sequence | gcPBM binding intensity (ln) |
| --- | --- |
| AAAAAATAAATAAATAGTACTTTAAAAGAAAAAAAA [XGTACX_site5051] | 6.19 |
| AAATAAAAAATGGAAATCTTAACAAGAATCATTAAC [CACACA_negctrl_site1626] | 6.1 |
| TATATACAGAATATATGTACATATTCATTTTATATT [XGTACX_site5139] | 6.4 |
| TTGTTTAACTTGTTAAATATAATGTATCTGTGGATA [GTGCAC_negctrl_site108] | 6.14 |
| AAAGAAAACCAAGTGGTGCATTTTCGTTACTTCATC | 9.95 |
| CAATGTTACTATAATACACACAATATGTATTTGTCT [CACACA_site6668] | 6.7 |
| AATATATATACTTTTTTTTTTTTTTTTTTTTTTTTT [CACACA_negctrl_site520] | 7.19 |
| TTTAGCACAAACAAAAAAAAAATAGAAAAAAATATA [CACACA_negctrl_site1772] | 6.48 |
| TATGTTTACATATACGTGCACATGAATGTATACATT [GTGCAC_site9894] | 9.57 |
| ACAAATTGTTAAAGGTGTACAATACATATATAAGAA [XGTACX_site4906] | 7.43 |
| AATAATTGTTATAGTTGTACAATACATATATTACAA [XGTACX_site30] | 6.41 |
| CCTTTCTATTGAAAATGTACATATATATTATTATAT [XGTACX_site5527] | 6.51 |
| AATAATTGTAGACATGCACACACAAATATTATATAT [CACACA_site8181] | 8.3 |
| TGTATATATAAAAATATACACACTGTATTATTGTAA [CACACA_site3757] | 6.31 |
| CATATTTTGAACTTCACACATATATATATATATATA [CACACA_site4228] | 9.42 |
| GGTAGATTATTATTAACGAAAAATGTTTTTAACATA [GTGCAC_negctrl_site216] | 6.24 |
| TCATAAATTAAACACACACACACATCTGGATACCCC [CACACA_site9096] | 7.12 |
| ATATATTTTTTTTAGCGTACATGCAAAAAAAAAAAA [XGTACX_site4590] | 6.44 |
| TTTTGTTGTTGTTGTTGTACATAAATAATAAAATAT [XGTACX_site8681] | 6.55 |
| AATTAACCGAAACACACACACATATATATATATATA [CACACA_site3963] | 9.38 |
| TATACACACAGACATGCATGCACATATATATATACA [TGCATGCA_site30] | 9.14 |
| AAATTAAAAGAAAATACACACCTGTGGGTGCTTATA [CACACA_site5143] | 5.73 |

| Sequence | gcPBM binding intensity (ln) |
| --- | --- |
| TATTTATTCACTTATTGTACTTATATATATAATAAA [XGTACX_site6147] | 6.84 |
| ATTTTTTTTTGTTTAATGTTATGTGGTCATTAAATT [CACACA_negctrl_site1177] | 6.83 |
| TTATATTTATATGTAATACAAAATAACAAAAAATTT [CACACA_negctrl_site1721] | 6.08 |
| TTGGTAATTTTAAAATGTACTTATTATATATATATA [XGTACX_site5642] | 8.48 |
| TATATATATATATCCACACACATACATATATTAATA [CACACA_site69] | 9.38 |
| TATACACTTGTAATAACACACATTATTTTTTTTTTT [CACACA_site1324] | 6.43 |
| ATAAAAAATTTAAGTATTTTTTACAAACCTATAAAT [GTGCAC_negctrl_site51] | 6.09 |
| TACTGCCTTCCATACCCACACACTTCCCATATATTT [CACACA_site2705] | 7.07 |
| TCTAAAAATAAGAACACACACATATAAGCATATAAA [CACACA_site2274] | 6.82 |
| AAAACGCTACATAATTGTACATGTAGAAATAAAAGC [XGTACX_site2895] | 6.98 |
| ATTTAAAAAAAAAAAACACACATGTGAATAGAAAAG [CACACA_site3323] | 6.8 |
| AGTATAATAATATTTACACACGCATATGTTATATAT [CACACA_site1476] | 6.8 |
| ACTCTTGATCTGAATGCACACAATAAATTATATAAA [CACACA_site1438] | 9.32 |
| AAAAATTTGGCATACACACACACACCCACACCCACA [CACACA_site587] | 6.72 |
| TATGTATTTAAATTAACACACATATGTGGTTAATAG [CACACA_site5697] | 6.51 |
| ATATATTATATATATTGTACATGTAAAATTTTAAAA [XGTACX_site7197] | 6.78 |
| ACATATATATATATATATATATATATATCATTATGT [CACACA_negctrl_site724] | 7.44 |
| TATGTGCACCCATGTACATGCGGACATATGTTATAT [TGCATGCA_site383] | 10.6 |
| GATATTCATAGAAACACACATACAAATTATGTATAT [CACACA_site144] | 6.38 |
| TTGCCCATTTAATTAACACACAAATATTTATATTCT [CACACA_site738] | 6.9 |
| ATTTCCTTTTGTTTCAGTACATAATTTTTTTTTTTT [XGTACX_site4842] | 6.99 |
| GTTAAATAATATATATGTACATACATAAGTGTTACT [XGTACX_site4778] | 6.37 |

| Sequence | gcPBM binding intensity (ln) |
| --- | --- |
| TTTTTAAAGTTTTATACACACACCAAAATTATTCTA [CACACA_site600] | 6.92 |
| TAATTGTACGCCAATACACACAGAATTAAAATGTAG [CACACA_site4234] | 6.73 |
| TTTTACAATAATAAGTAGATCTAAATAAAGATTTAA [GTGCAC_negctrl_site547] | 6.19 |
| AGTAGTCTGGAGAAAAGTACATAGTATCTGGTAACC [XGTACX_site2024] | 6.25 |
| CATACAAATTAATATGTACACACAAATATATATATA [CACACA_site8605] | 8.6 |
| AAAAAAAAAAAATAATGTACATATGTATTTGAGAAA [XGTACX_site3572] | 6.51 |
| TTTATATTATTTAATGAGAAATAATTATAAACAATT [TGCATGCA_negctrl_site65] | 5.97 |
| TTCCAAAATTGCACATGTACAAAATTCTCCAATATG [XGTACX_site3419] | 9.95 |
| TTTTTTTTTTTTTTTTGTACATATTTTAATTTGTTT [XGTACX_site6297] | 6.27 |
| ATGGCCACTGTGAAATGTACAAAAAAAAAATACAAT [XGTACX_site2874] | 6.68 |
| TATGTATATATATATATATATATATATATATATATA [TGCATGCA_negctrl_site491] | 9.37 |
| TTTCATAACAAAAAAGTGCAAAATAGCACGAACATT [GTGCAC_site9703] | 8.91 |
| AGAAAAAGGAGAAAAAGTACAAAACGGAGTAGTATT [XGTACX_site3858] | 6.73 |
| AAAAATTATATACATCATAGAATTAACATTTTAAAT [GTGCAC_negctrl_site369] | 6.05 |
| AAATCAACGATCTATACATGCATATAATATATACAT [TGCATGCA_site25] | 6.26 |
| TAATAATACCCTTGCTGTACCAAATAAAGTTGAATA [XGTACX_site6922] | 5.98 |
| GTAGCAATAAACATATGTACATATATATATTTTTTC [XGTACX_site5814] | 6.7 |
| ATTAAAAAGACAAAAAAAAAATTTTTTTTTTTTTTT [CACACA_negctrl_site1027] | 6 |
| AAAAAAATACCATTCACACATATTCTTTTATTATTT [CACACA_site5113] | 6.35 |
| AAAAAAAAAAAGTTTACACACATTAATTTTACATAT [CACACA_site834] | 6.21 |
| TATGAGGAAACGTGGTGTACTTTTTTTTAATAAAAA [XGTACX_site1351] | 6.37 |
| ATAAATATAATAATCATACACACCAAAGAGAATATT [CACACA_site1888] | 6.56 |

| Sequence | gcPBM binding intensity (ln) |
| --- | --- |
| AAAGTTATTATGCAATAATTATGATAATTAATATAT [TGCATGCA_negctrl_site316] | 7.41 |
| ATGACTTACATATATAGTACTTTGTTTTGGAGTTGC [XGTACX_site94] | 6.43 |
| ACAAACAAAGAAAGAACACACATACACAATATACCT [CACACA_site5566] | 6.8 |
| CATATAAAAATATATGCACACAAATAAAAAATTATA [CACACA_site9210] | 10 |
| ATATTTAAATAATATTCACACACAAAATTATATTTT [CACACA_site7955] | 6.44 |
| ATTTCTCAATCGTAATGTACAAAAAAAAGGGAAAAG [XGTACX_site2781] | 6.61 |
| GCAGGATTGGTTCAAACACACATATTATATGACTAT [CACACA_site660] | 6.76 |
| TTTTTTTTTTTTTTTGCACACACATAATAGGTACAA [CACACA_site3578] | 9.38 |
| ATCTTATATGATCACACACACACGCACAAAACAGAA [CACACA_site4913] | 7.49 |
| ATACAAAAAGTAAAAAGTACTTAACTAAATATATAA [XGTACX_site2335] | 6.39 |
| TTTTCAATATATTAATGTACGAATACGCAAATAAGA [XGTACX_site1613] | 7.6 |
| TTAATAAATAAAAATGCACACAGTTAACATGTTGAA [CACACA_site1200] | 9.16 |
| GCACATAAATATATGACACACACACCGATTATATAT [CACACA_site9003] | 6.75 |
| AAAAAAAAAAAAAAAACACACAAACATCAAATTATT [CACACA_site5083] | 6.59 |
| ATAATAATTTAATACATACACACGTATATCTTTTTT [CACACA_site2041] | 6.66 |
| ATTAAAAAAATTAAAAGTACACATATTTCAATGATA [XGTACX_site5606] | 6.32 |
| TAAGTTATATGTATATGTACTTATATATATATATAT [XGTACX_site5402] | 9.31 |
| AAAATTAAAAAGAACACACAAATATATCTATAATAA [CACACA_site7660] | 6.43 |
| TAAAAAAAAAAAAAAACACACATATAAATATATATA [CACACA_site1243] | 6.45 |
| TGTGTTCATCTATGCACACGCATATATATTATTGTT [CACACA_site5985] | 9.64 |
| TAATCGAAACAAAGAACATGCAAACATATACCTATA [TGCATGCA_site894] | 6.3 |
| CAAAATTTATGTAAAAGTACAAAAATATAGAAAGAT [XGTACX_site1122] | 6.99 |
